In publication PMC3760798:
Results are given in words; binding and its absence hold for the method and conditions named. Binding seen in cells or lysates may run through a third protein. Some results given as binding are weak or reduced against the parent protein; the word gives no strength.

Assays:
[1] = molecular target: endogenous CBP (CREB-binding protein) (mouse (endogenous in rela−/− fibroblasts)), P45481; test: co-IP; nuclear extracts of RelA(wt/mutants) reconstituted rela−/− cells, unstimulated or stimulated with TNFα (5 ng/ml; 15, 30, 45 min); anti-CBP, anti-p300 or anti-RelA antibody, protein-G beads; immunoblot for RelA or CBP; settings: remark: other sources report otherwise
[2] = molecular target: endogenous p300 (mouse (endogenous in rela−/− fibroblasts)), B2RWS6; test: as above; settings: remark: other sources report otherwise

binding [1]: binds
binding [2]: binds
B1: RelA(wt), full length, in reconstituted rela−/− cells, Q04207 1-549 (protein)
chain: MDDLFPLIFPSEPAQASGPYVEIIEQPKQRGMRFRYKCEGRSAGSIPGERSTDTTKTHPTIKINGYTGPGTVRISLVTKDPPHRPHPHELVGKDCRDGYYEADLCPDRSIHSFQNLGIQCVKKRDLEQAISQRIQTNNNPFHVPIEEQRGDYDLNAVRLCFQVTVRDPAGRPLLLTPVLSHPIFDNRAPNTAELKICRVNRNSGSCLGGDEIFLLCDKVQKEDIEVYFTGPGWEARGSFSQADVHRQVAIVFRTPPYADPSLQAPVRVSMQLRRPSDRELSEPMEFQYLPDTDDRHRIEEKRKRTYETFKSIMKKSPFNGPTEPRPPTRRIAVPTRNSTSVPKPAPQPYTFPASLSTINFDEFSPMLLPSGQISNQALALAPSSAPVLAQTMVPSSAMVPLAQPPAPAPVLTPGPPQSLSAPVPKSTQAGEGTLSEALLHLQFDADEDLGALLGNSTDPGVFTDLASVDNSEFQQLLNQGVSMSHSTAEPMLMEYPEAITRLVTGSQRPPDPAPTPLGTSGLPNGLSGDEDFSSIADMDFSALLSQISS
